Source: article PMC12136788
Some of the results follow.

T1: UNK ZnF1-3 (human, UniProt Q9C0B0 31-174)
T1 sequence: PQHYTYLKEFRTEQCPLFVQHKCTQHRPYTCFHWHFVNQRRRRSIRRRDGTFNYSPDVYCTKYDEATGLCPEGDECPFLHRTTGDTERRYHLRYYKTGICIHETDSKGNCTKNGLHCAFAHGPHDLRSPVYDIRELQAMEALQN

B1: chr7:7679991:7679992:-_ENSG00000106399_ENST00000396682|hu_hu|hu_hu_hu_mus_False|28_88 (ssRNA)
RNA: GGGAGUUCUACAGUCCGACGAUCUGGGAUGAAUCUUUUCCAGCUUCCCUACGAAGCACACGGGCCGGUCGAUAUACUGUGGUAACAUGCUGGCGUUGACGCGCGCUCUGGGCAAGUGCAUUAUGUCCUCCAUGAUUCUGCCGCCAACAGAGGAUUGAGCAUCA
B2: 121282780_121282900_235_3pUTR_ENSMUSG00000074884_ENSMUST00000148575|mouse|control|control (ssRNA)
RNA: GGGAGUUCUACAGUCCGACGAUCUCUAACUCCAACUCCACGUCUCCCUCGGUCGCCAUUUCGAUCUCACCGCGCCGCCGCAUAGGCUGCCGCUUCACAACUUCCGGCAACCCUCACAGCUUCCGCCCAGAUAAGGGGCGGGGUCAACAGAGGAUUGAGCAUCA
B3: chr1:130485734:130485735:-_ENSMUSG00000045382_ENSMUST00000052172|mus_mus|mus_mus_mus_hu_False|38_88 (ssRNA)
RNA: GGGAGUUCUACAGUCCGACGAUCGAUGAAGGAGUCGAUGCUGAUCCCCACAUAAUAAGGCAGCCAACAGGCGAAGAAAGCCAGGAUGAGGAUGACUGUCGUCUUGAGGGCCUUGCGCUUCUGGUGGCCCUUGGAGUGUGACAGCAACAGAGGAUUGAGCAUCA
B4: chr2:168010559:168010560:-_ENSMUSG00000051149_ENSMUST00000088001|perfect_dup|FALSE|FALSE (ssRNA)
RNA: GGGAGUUCUACAGUCCGACGAUCUUCCAAAGUCUUUUUGUCUGCAUUGAAGGUACAGUAGGGGCAAUUAAGGAGAAUCCUAUUUUCAAAGUCUUCACUAUGGACAUUGCGGAAAUGACUUUUGUAGGCAGAGAAGAAUUUUGACAACAGAGGAUUGAGCAUCA
B5: 171496935_171501553_1508_CDS_ENSG00000117523_ENST00000367742|human|control|control (ssRNA)
RNA: GGGAGUUCUACAGUCCGACGAUCAUCAGCUACUUGCUGCUUGGAGGGAAAGGGGCCUGGUCUUCCAGGUACUGCCUGUCGAUCUGGAGGUGGAUGCUGCUGUGCAAGCAACUUUGGAGGUGGUGGCAGAUGUGAAGAUGUUCCCAACAGAGGAUUGAGCAUCA
B6: chr5:71490377:71490378:+_ENSG00000131711_ENST00000296755|hu_mus|motif|central (ssRNA)
RNA: GGGAGUUCUACAGUCCGACGAUCGCCCACUCCCAUCUUCUGGAACAGGAUGACAGGCUCAAUGGUAUUGCCUACACUUCGGAAUAGAGGCUCUGGUUUCAUGGACAGUUUGUUUAAGUACUGGAGAGUGAAGCAUGCUUCUUCCAACAGAGGAUUGAGCAUCA
B7: chr17:45747064:45747065:+_ENSG00000108424_ENST00000290158|hu_hu|hu_hu_hu_mus_True|18_98 (ssRNA)
RNA: GGGAGUUCUACAGUCCGACGAUCGCCCACAGUCCACGCAGCUGUAUCUCGAACAACUACACUGGGGUCUUUCAUUAGUUCUAUUAGGGUGGGCAUAGCCUGUAUGACUAAUGGUUUGAGCUGACUGGGCUCUGGUCCUUCCAACAACAGAGGAUUGAGCAUCA
B8: 120916490_120918314_339_3pUTR_ENSG00000154114_ENST00000422003|human|control|control (ssRNA)
RNA: GGGAGUUCUACAGUCCGACGAUCCAGCAAUUUCUUUUUCAUCUCCUGCACAGGUUAUUCCACAGCUGUUCAACACUAGUACACUUGGGAGGUUGAGGCGAUCUUUCAUAGGAGAGCCCUGAGGUGUGGCUGGGACAUGGACUCCAACAGAGGAUUGAGCAUCA
B9: chr22:32879901:32879902:+_ENSG00000100225_ENST00000397426|hu_hu|motif|central (ssRNA)
RNA: GGGAGUUCUACAGUCCGACGAUCCUCUGCCAUAUGCGCAUUAUCUUGAAUUGACUCAGCUUCAAAAUUUUGACUAGGCCCGGACAUACUGUCGUCAUUCCAAACACCAGACUGGGCUGCCUGUCCUUGGAAUGAAUCACUUGGCAACAGAGGAUUGAGCAUCA
B10: 125631435_125631555_1209_CDS_ENSG00000151458_ENST00000504087|human|control|control (ssRNA)
RNA: GGGAGUUCUACAGUCCGACGAUCUCCUACCAACAACACACCCCAGGCAGCUCCCUUUCCAGAGACACCACUAGCAUUAUUCCCAGAAUUCAUUACAAGUGAUGGUGCAUUGACAGCACUAUUGCAGCAGUUACUUUUCUCCUGCAACAGAGGAUUGAGCAUCA
B11: 184244383_184244503_3702_3pUTR_ENSMUSG00000047539_ENSMUST00000051431|mouse|control|control (ssRNA)
RNA: GGGAGUUCUACAGUCCGACGAUCUACCAAAAAAAAUGUCAACUUGGACCAGUGGCUUUCGACAUGGGGCACCCAAAUAGUCUUCACAACAGGAGUUAAUGGCCCCCUUGCCUCCAGGCUCUCUCUACAUCACAAGGGGAGUUUCAACAGAGGAUUGAGCAUCA
B12: chr11:87793471:87793472:-_ENSMUSG00000020483_ENSMUST00000020775|mus_mus|mus_mus_mus_hu_False|98_108 (ssRNA)
RNA: GGGAGUUCUACAGUCCGACGAUCUGGGGGCUGGGGAAAAAAAAAUAGCUGGAUCCCCCACCCCCCCACAUUGUCAACCCUACACGAGAGUUUUGAAGGCGACUCAUGAAAAUCAGCAGCUCAAACGGCAAUGACCACCCCACCCAACAGAGGAUUGAGCAUCA
B13: chr8:28385162:28385163:+_ENSG00000104290_ENST00000537916|hu_hu|motif|central (ssRNA)
RNA: GGGAGUUCUACAGUCCGACGAUCGUGAAACAGCAAUGCUUUCUUCUCAAUAGCUUCACUACCCCACUUUGGCACAGCUGCGGAAAACCAUGUGAUGGUAAGAAUUACCCACCAUACACUGCCAGCCAUAGUAAAAAAAUAGAGCAACAGAGGAUUGAGCAUCA
B14: chr16:13687521:13687522:+_ENSMUSG00000022684_ENSMUST00000023365|mus_mus|motif|central (ssRNA)
RNA: GGGAGUUCUACAGUCCGACGAUCGGCUGCAAGACUUUGGACUACAUCAUUAUUCUGCUGAAUGUCUUCAACUCGCAUUCGGAUGGCAUCAGGAAAUAACUUUUCAAUGGCAUCCCUGAGGAGAAUGUUGACUUUAGGAAAACCCAACAGAGGAUUGAGCAUCA
B15: chr2:198365819:198365820:+_ENSG00000115541_ENST00000409468|hu_mus|FALSE|FALSE (ssRNA)
RNA: GGGAGUUCUACAGUCCGACGAUCAGUUUCGGCAGCACUCCUUUCAACCAAUACUCUGUCAAAGAGCGGAAGAAACUUCCUAAAAGCUUGUCCAGCCAUGACUCUCGCCUUCGCCGCCACCACCGCAGCUCCGGACUCUGAACUCAACAGAGGAUUGAGCAUCA
B16: chr10:57943292:57943293:+_ENSMUSG00000003226_ENSMUST00000003310|mus_mus|FALSE|FALSE (ssRNA)
RNA: GGGAGUUCUACAGUCCGACGAUCCAAAGAACCAGUGGCUGAACUGUUGCCAAAUGCAAAUGGCUUGGAUUUUUCACUACUAAAAAUGCUUUUAACAGAUUCUGAGCCAAAUACAAACUUAGGAGGAGAAACUACUGCUUUUGGCAACAGAGGAUUGAGCAUCA
B17: chrX:148438211:148438212:+_ENSMUSG00000025260_ENSMUST00000026289|mus_mus|FALSE|FALSE (ssRNA)
RNA: GGGAGUUCUACAGUCCGACGAUCGUCUGGUUCAUUCUGGCCCAUCUCCCCAGCAACCAGGCGGAUCACAUUGAAAGUGCCUAUAAGAUUCACAUUGAUAACCCGCUGGAAGUCCUCCAAAGUAUGGAUCUUGUUCUUCUUUUGCAACAGAGGAUUGAGCAUCA
B18: chr8:74858975:74858976:-_ENSG00000154582_ENST00000284811|hu_mus|hu_hu_hu_mus_True|18_48 (ssRNA)
RNA: GGGAGUUCUACAGUCCGACGAUCGACCUUGUAGGUAAAAUACAUGCACACUUUUGAUAGCACAUGUGAGGGGAUCUCUCUAAAAUUGACCUCAUUGGUUUCAUUCUCAGCAAACUGACCUGGGCCACUCAACAUAGCCUUUAUCAACAGAGGAUUGAGCAUCA
B19: chr10:118639881:118639882:-_ENSMUSG00000020114_ENSMUST00000020315|mus_mus|FALSE|FALSE (ssRNA)
RNA: GGGAGUUCUACAGUCCGACGAUCAACAUCAGUGGCUUUACAACCUCUGGCUUAUGGAAAUACAGACUUCUGAAGUAAAAGCUACAAAAACAACAAUGGAAGAAAGCCAAACAAACUUCCCGGGAAGGAAAGUAAAGUGGAACACAACAGAGGAUUGAGCAUCA
B20: 57333846_57335874_124_CDS_ENSG00000174780_ENST00000510663|human|control|control (ssRNA)
RNA: GGGAGUUCUACAGUCCGACGAUCAAGGCAUACCACUUUACAAUGCAGGGCAGUUACGUCAUCUUUGUUGAUCUGUAGUAUCUUAUUGACGGUCUUGAGAGCGCGCGUGAAGUCGCCGUUCUGGCCAUACCGGUUCACUUCACUCAACAGAGGAUUGAGCAUCA
B21: chr4:103717771:103717772:-_ENSG00000109332_ENST00000394803|hu_hu|motif|central (ssRNA)
RNA: GGGAGUUCUACAGUCCGACGAUCUCCAGGCAGCUAACUCAUUGGUUUAUGCAACUUUAUUGAAGAAAAAUAAAUCAAUUACGGGCAGAGCUAUUAGUUGAUCACUCAUCCAUUGACAACUUGCAUCAUUUAUUCAGUGCUAUACAACAGAGGAUUGAGCAUCA
B22: 110045949_110064326_450_3pUTR_ENSG00000119318_ENST00000358015|human|control|control (ssRNA)
RNA: GGGAGUUCUACAGUCCGACGAUCGAGGAUUUUGCCUGCAUAAAUUAAUUUUUGACCUGCUACUGGAAAGGCAUCUUUCCCCUUUUCAGAUUCAAUCUUCUCUUUCAGUGCUUUCACCGUCUCCUCGGGGUCAAUGUCUAUCUUCAACAGAGGAUUGAGCAUCA

What follows are binders tested against T1, UNK ZnF1-3 (assay: nsRBNS (natural sequence RNA bind-n-seq); RBNS binding buffer (assumed for nsRBNS): 25 mM Tris pH 7.5, 150 mM KCl, 3 mM MgCl2, 0.01% Triton X-100, 500 ug/ml BSA, 20 U/ml SUPERase-In, 4 C; UNK is unkempt and MSI1 is Musashi-1; names of the RNAs are library labels; protein concentration not given here; high values mean tight binding).

Binder | binding signal
B1 | 0.75 enrichment R
B2 | 0.801 enrichment R
B3 | 0.981 enrichment R
B4 | 1.15 enrichment R
B5 | 0.941 enrichment R
B6 | 0.899 enrichment R
B7 | 0.746 enrichment R
B8 | 1.34 enrichment R
B9 | 0.775 enrichment R
B10 | 1.22 enrichment R
B11 | 1.54 enrichment R
B12 | 2.05 enrichment R
B13 | 1.87 enrichment R
B14 | 1.42 enrichment R
B15 | 1.17 enrichment R
B16 | 1.62 enrichment R
B17 | 0.797 enrichment R
B18 | 0.699 enrichment R
B19 | 1.57 enrichment R
B20 | 0.568 enrichment R
B21 | 1.32 enrichment R
B22 | 0.579 enrichment R
